The whole screen tested about 71,000 compounds, of which about 1,400 (2%) were called active. Inconclusive means that the source gave no clear call. Such entries were picked first, then a sample of the others. The call rests on the fitted dose curve; in most records, active means well fitted curve in the direction sought with a large enough effect; inconclusive means small, poorly fitted or top-dose-only effect; inactive means no such curve, though single readings can be large or run the other way. Where the call is inconclusive, the potency comes from a doubtful curve fit.
What follows are compounds tested against Microtubule-associated protein tau (Homo sapiens) (UniProt P10636) (assay: qHTS Assay for Tau Filament Binding). Conditions: recombinant tau filaments, thioflavin S fluorescence, 15 h, filaments grown with octadecylsulfate alongside compound; series mostly up to 57.1 µM; activity change, negative = inhibition: at the top concentration.
How it was run: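 His-tagged recombinant human tau (exons 2, 3 and 10 included), 1 uM, was induced to fibrillize by 30 uM sodium octadecylsulfate with compound present. After 15 h at 37 C, thioflavine S fluorescence (ex 450, em 510 nm) was read.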
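Further: actives lower thioflavin S fluorescence by blocking filaments or displacing dye.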
On the % scale 0 is the no-effect control and ±100 the full control effect; potency means the concentration at half of the fitted maximal effect.

Sequence of UniProt P10636 (P10636 whole entry, looked up): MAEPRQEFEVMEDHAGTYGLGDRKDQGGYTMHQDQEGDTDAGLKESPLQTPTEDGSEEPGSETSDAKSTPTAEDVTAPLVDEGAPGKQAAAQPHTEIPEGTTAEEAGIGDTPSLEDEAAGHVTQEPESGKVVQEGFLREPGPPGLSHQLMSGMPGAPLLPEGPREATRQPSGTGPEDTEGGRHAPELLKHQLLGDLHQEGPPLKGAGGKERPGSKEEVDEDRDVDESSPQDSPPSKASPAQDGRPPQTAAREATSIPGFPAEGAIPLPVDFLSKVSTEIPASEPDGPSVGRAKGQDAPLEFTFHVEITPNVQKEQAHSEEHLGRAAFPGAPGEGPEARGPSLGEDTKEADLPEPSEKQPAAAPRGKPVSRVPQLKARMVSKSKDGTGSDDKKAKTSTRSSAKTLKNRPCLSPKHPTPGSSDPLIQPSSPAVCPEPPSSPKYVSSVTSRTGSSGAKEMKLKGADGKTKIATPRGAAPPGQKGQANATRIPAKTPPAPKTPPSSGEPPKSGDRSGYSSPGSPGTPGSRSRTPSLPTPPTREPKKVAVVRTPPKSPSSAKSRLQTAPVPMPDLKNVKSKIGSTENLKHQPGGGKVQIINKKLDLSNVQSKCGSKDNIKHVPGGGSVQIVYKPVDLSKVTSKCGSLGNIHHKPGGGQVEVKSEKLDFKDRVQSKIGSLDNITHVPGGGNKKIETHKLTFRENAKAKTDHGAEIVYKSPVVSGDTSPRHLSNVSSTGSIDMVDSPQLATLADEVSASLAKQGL

SMILES	Potency	activity change, negative = inhibition
CC(=O)Nc1nc(C)c(-c2csc(Nc3ccc(O)cc3)n2)s1	inconclusive: 31.6 µM [decreasing]	
Cc1cc(C)nc(SCC(=O)c2cc3ccccc3oc2=O)n1		inactive: -17.6%
Cc1nnc(SCC(=O)Nc2sc3c(c2C#N)CCCC3)[nH]c1=O	inconclusive: 3.16 µM [decreasing]	
O=C(Nc1cccc2ncccc12)c1cc2ccccc2o1		inactive: -7.6%
N#CC1=C(SCC(=O)NC23CC4CC(CC(C4)C2)C3)NC(=O)C(C#N)C12CCCCC2 (stereo unspecified)	inconclusive: 15.8 µM [decreasing]	
CCc1cccc2nc3c(c([Si](CC)(CC)CC)c12)Cn1c-3cccc1=O	active: 20 µM	
O=C(NCCc1c[nH]c2ccccc12)C(F)(F)C(F)F		inactive: 1.4%
O=C1c2ccccc2C(Cc2ccncc2)(Cc2ccncc2)c2ccccc21	inconclusive: 39.8 µM [decreasing]	
Cc1onc(-c2ccccc2)c1C(=O)Nc1nc(-c2ccc(F)c(F)c2)cs1	inconclusive: 3.16 µM [decreasing]	
COc1ccccc1Nc1nc(N)nc(CN2CCN(c3ccccc3F)CC2)n1		inactive: -9.8%
CC(C)=CCCC(C)N(C=O)C(C)CCC=C(C)C (stereo unspecified)		inactive: -2.8%
CN1C[C@H](C(=O)N[C@]2(C)O[C@@]3(O)[C@H]4CCCN4C(=O)[C@H](Cc4ccccc4)N3C2=O)C[C@H]2c3cccc4[nH]cc(c34)C[C@@H]21	inconclusive: 39.8 µM [decreasing]	
CCc1ccc(C2=Nn3c(nnc3-c3cccs3)SC2)cc1		inactive: 3.7%
COc1ccc2oc(C(=O)C3CC3)c(N)c2c1		inactive: -11.3%
CCOc1cc(N2CCOCC2)c(OCC)cc1NS(=O)(=O)c1ccc(Cl)s1	inconclusive: 25.1 µM [decreasing]	
O=C(Nc1ccccc1N1CCCCC1)c1ccc2nccnc2c1	inconclusive: 31.6 µM [decreasing]	
CCCN=Cc1sc2ccc(OCC)cc2c1O	active: 15.8 µM	
O=C1c2ccccc2C(=O)N1CCCCSc1nnnn1-c1ccccc1	inconclusive: 15.8 µM [decreasing]	
CCN1CCN(c2cc(C)c3cc(NC(=O)Cc4ccc(OC)c(OC)c4)ccc3n2)CC1		inactive: -28.4%
Cc1cc(C)nc(Nc2ccc(N3CCOCC3)cc2)n1	inconclusive: 20 µM [decreasing]	
COc1ccc(N2Cc3ccccc3C2)cc1Cl	inconclusive: 7.94 µM [decreasing]	

SMILES	Potency	activity change, negative = inhibition
O=C(O)c1ccccc1Nc1cccc(OCc2ccc3ccccc3n2)c1	inconclusive: 39.8 µM [decreasing]	
C(=N\n1cnnc1)/c1ccc2ncccc2c1	active: 12.6 µM	
Cc1ccc(NC(=O)CC2Nc3ccccc3NC2=O)cc1Cl (stereo unspecified)	active: 20 µM	
COc1ccc(C(=O)n2c(-c3ccco3)nc3ccccc32)cc1		inactive: 11.6%
Cc1ccc(/C(C#N)=C\c2cn(C)c3ccccc23)cc1	inconclusive: 31.6 µM [decreasing]	
Cc1ccc(-n2nnc3ccccc3c2=O)cc1C	inconclusive: 10 µM [decreasing]	
Cc1nnc(Sc2nc3ccccc3o2)c2ccccc12	inconclusive: 31.6 µM [decreasing]	
CCOC(=O)c1cc2cc(-c3c(C(=O)OCC)oc4cc(O)cc(O)c4c3=O)ccc2o1	inconclusive: 31.6 µM [decreasing]	
O=C(c1ccco1)N1CCCC(c2nc(-c3ccc(S(=O)(=O)NCc4ccccc4)cc3)no2)C1 (stereo unspecified)		inactive: 52.5%
O=C(O)C1CC(=O)N(Cc2ccc3c(c2)OCO3)C1 (stereo unspecified)	inconclusive: 25.1 µM [decreasing]	
O=C(c1csnn1)N1CCC2(CCCN(c3ccccc3)C2)CC1		inactive: -6.3%
O=C(O)c1cn[nH]c1-n1cnnn1		inactive: 0.6%
CCCCOC(=O)Nc1ccc(N2CCOCC2)cc1	inconclusive: 20 µM [decreasing]	
Clc1cc(NCc2cccs2)ccc1N1CCOCC1	inconclusive: 12.6 µM [decreasing]	
O=c1cc(-c2cccc(O)c2)oc2c(O)c(O)ccc12	inconclusive: 39.8 µM [decreasing]	
CCC(C)n1cnc2c(c1=O)c1nc3ccccc3nc1n2Cc1ccc2c(c1)OCO2 (stereo unspecified)	active: 3.16 µM	
O=C(c1cccc(-n2cnnn2)c1)N1CCOCC1		inactive: -9.3%
COc1ccc(NC(=O)NCCCN2CCN(c3cc(C)ccc3C)CC2)cc1	inconclusive: 5.01 µM [decreasing]	
CCOC(=O)c1cnn(-c2nc(SC)nc3sc4c(c23)CCC4)c1N	inconclusive: 39.8 µM [decreasing]	
Oc1c(Cl)cc(Cl)cc1Sc1cc(Cl)cc(Cl)c1O	inconclusive: 31.6 µM [decreasing]	
O=c1c(O)c(-c2ccccc2)oc2cc(O)cc(O)c12	inconclusive: 39.8 µM [decreasing]	

SMILES	Potency	activity change, negative = inhibition
O=C(NCCc1ccccc1)C1CCN(S(=O)(=O)c2cccc3nonc23)CC1	inconclusive: 31.6 µM [decreasing]	
COc1cccc(Cn2c(=O)c(-c3cccc(F)c3)nc3cncnc32)c1	active: 12.6 µM	
O=C(CSc1nc(-c2ccccc2)cc(C(F)(F)F)n1)NCCN1CCOCC1	inconclusive: 15.8 µM [decreasing]	
Cc1c(CC(C)(C)C(=O)O)n(Cc2ccc(Cl)cc2)c2ccc(F)cc12	inconclusive: 39.8 µM [decreasing]	
COc1cc2oc(-c3ccccc3)cc(=O)c2cc1O	inconclusive: 39.8 µM [decreasing]	
O=C(Nc1ccccc1N1CCOCC1)c1ccc2c(c1)C(=O)N(Cc1ccncc1)C2=O	inconclusive: 31.6 µM [decreasing]	
COc1ccc(C(c2c(O)ccc3ccccc23)N2CCOCC2)c(OC)c1 (stereo unspecified)	inconclusive: 25.1 µM [decreasing]	
c1ccc(-c2cnnc(N3CCCCC3)n2)cc1	inconclusive: 12.6 µM [decreasing]	
Cc1ccc2[nH]c(=O)c(CN(CC3CCCO3)S(=O)(=O)c3c(C)ccc4nsnc34)cc2c1 (stereo unspecified)	inconclusive: 39.8 µM [decreasing]	
O=C(CCC1N=C2c3ccccc3N=C(SCc3ccc(Cl)cc3)N2C1=O)NCc1ccco1 (stereo unspecified)		inactive: -10.6%
CC(C)COC(=O)Cc1c(O)c2ccccc2[nH]c1=O		inactive: -6.4%
Cn1c(/C=C/N2CCOCC2)c(C(=O)c2ccc(Br)cc2)c(=O)n(C)c1=O	inconclusive: 10 µM [decreasing]	
Cc1ccc(CN2C(=O)/C(=C3\SC(N4CCOCC4)=NC3=O)c3cc(Br)ccc32)cc1	inconclusive: 31.6 µM [decreasing]	
COc1ccccc1N1CCN(C[C@@H](C(=O)NC(C)(C)C)c2ccccc2)CC1	inconclusive: 39.8 µM [decreasing]	
CC(C)(C)c1nnc2sc(SC/C(O)=C(\C#N)c3nc4ccccc4[nH]3)nn2c1=O	inconclusive: 25.1 µM [decreasing]	
CCCc1cc(=O)[nH]c(Nc2ccc(N3CCCCC3)cc2)n1	active: 25.1 µM	
CCSC1=C(C#N)C2(CCCCC2)C(C#N)=C(N)N1		inactive: 2.9%
CCSC1=NC(=O)/C(=C2/C=Cc3ccccc3N2CC)S1	active: 3.98 µM	
CC(=O)c1c(O)cc(C)n(Cc2ccccc2)c1=O	inconclusive: 39.8 µM [decreasing]	
C[C@@H](C1=C(CCN(C)C)Cc2ccccc21)c1ccccn1	inconclusive: 39.8 µM [decreasing]	
COC(=O)c1c(NC(=O)c2nc3ccccc3s2)sc2c1CCN(C(C)=O)C2	inconclusive: 3.98 µM [decreasing]	

SMILES	Potency	activity change, negative = inhibition
O=S(=O)(O)c1ccc(NN(c2c(O)ccc3ccccc23)S(=O)(=O)O)cc1		inactive: -4.9% [at 11.4 µM]
CC(C)C(c1nnnn1Cc1ccc(F)cc1)N1CCSCC1 (stereo unspecified)	inconclusive: 39.8 µM [decreasing]	
O=C(Nc1ccc2c(c1)OCO2)c1cnn2c(C(F)(F)F)cc(-c3ccco3)nc12	active: 0.501 µM	
O=C(Nc1ccc2c(c1)OCO2)C1CCN(C(=O)CSc2ncnc3ccccc23)CC1	inconclusive: 31.6 µM [decreasing]	
Cn1c(CNc2nc3ccccc3n2C)nc2ccccc21		inactive: 13.8%
Cc1ccc(C(=O)COC(=O)c2cnccn2)cc1		inactive: 1.5%
CN(C)c1ccc(-c2nc(N(C)C)c3ccccc3n2)cc1	inconclusive: 3.98 µM [decreasing]	
Cc1ccc(N2CCN(C(=S)c3ccc(N(C)C)cc3)CC2)cc1	active: 12.6 µM	
Cc1cc2cc(CN(CCCO)S(=O)(=O)c3cccc4nsnc34)c(=O)[nH]c2cc1C	inconclusive: 25.1 µM [decreasing]	
CCOC(=O)c1ccc(NC(=O)CSc2nnc(CNc3ccc(OC)cc3)n2C)cc1	inconclusive: 20 µM [decreasing]	
O=C(O)CC/C=C\C[C@@H]1CO[C@H](c2ccccc2Cl)O[C@@H]1c1ccccc1O	inconclusive: 39.8 µM [decreasing]	
Cc1cc2oc3c(c(=O)c2cc1C)C(c1ccc(C(C)C)cc1)N(CCCN1CCOCC1)C3=O (stereo unspecified)	active: 3.98 µM	
Cc1ccc2c(c1)CCCN2C(=O)Nc1ccc2c(c1)OCO2	inconclusive: 39.8 µM [decreasing]	
CCN(CCC(=O)Nc1cc(OC)cc(OC)c1)Cc1ccccc1	inconclusive: 31.6 µM [decreasing]	
COC(=O)C1C(=O)c2c([nH]c(C(=O)OC3CCCCCC3)c2C)CC1C (stereo unspecified)	inconclusive: 6.31 µM [decreasing]	
NC(=O)c1c(NC(=O)COC(=O)CSc2nnc(-c3ccc(Cl)cc3)o2)sc2c1CCC2	inconclusive: 39.8 µM [decreasing]	
CCOC(=O)Cn1c(S(=O)(=O)Cc2ccccc2)nc2ccccc21	inconclusive: 20 µM [decreasing]	
O=C(NCc1ccccn1)c1ccc2nc(-c3ccco3)c(-c3ccco3)nc2c1	inconclusive: 6.31 µM [decreasing]	

From PubChem BioAssay AID596 (National Center for Advancing Translational Sciences (NCATS), 2007)
